The whole screen tested about 52,000 compounds, of which about 1,700 (3.3%) were called active. Cut-off read from the data, not from the text of the source: active = survival mostly below about 52% (no sharp cut-off); inactive = mostly above about 56%. The list shows a part of the results.
Test system: Wild type
Experiment: S. aureus survival, RN4220 and DeltatarO strains – OD600, teichoic acid synthesis inhibitors, primary screen (AID 463173)
Settings: S. aureus RN4220 wild type/DeltatarO growth, OD600, 18 h, stronger effect = lower value, screened at 18.75 µg/mL (by protocol)

Row | Compound | survival
1 | COc1ccc(CNCCSc2nnnn2-c2ccccc2)cc1 | inactive: 83%
2 | C1=CCC(CN2CCN(CC3CC4C=CC3C4)CC2)CC1 (configuration not stated) | inactive: 109%
3 | COc1ccc(CCNC(=O)c2ccc3c(c2)N(Cc2cccc(C)c2)C(=O)c2ccccc2S3(=O)=O)cc1OC | inactive: 101%
4 | O=C1C2C3C=CC(C3)C2C(=O)N1CCN1CCCC1 (configuration not stated) | inactive: 102%
5 | CCNC(=O)Cn1cc(C#N)c2ccccc21 | inactive: 98%
6 | CCc1ccc(-n2nnc(-c3nc(-c4ccccc4)no3)c2C)cc1 | inactive: 78%
7 | COc1ccccc1Nc1c2c(nc3ccc(NC(=O)/C=C/c4cccc(OC)c4OC)cc13)CCCC2 | inactive: 100%
8 | Cc1ccc(Nc2c3c(nc4nncn24)CCC3)cc1 | inactive: 83%
9 | COc1cc(OC)c(NC(c2nnc(-c3ccccc3)o2)c2ccc(F)cc2Cl)cc1Cl (configuration not stated) | inactive: 66%
10 | COc1ccc2nc(N(Cc3cccnc3)C(=O)CCc3ccccc3)sc2c1 | inactive: 83%
11 | COc1ccccc1NC(=O)CSc1nnc(-c2cccc(Cl)c2)o1 | inactive: 77%
12 | CCOc1ccccc1-c1nc(-c2ccc(-c3ccccc3)nc2OCC)no1 | active: -1%
13 | CCn1cc(S(=O)(=O)c2cc(C)cc(C)c2)c(=O)c2cc(F)c(N3CCOCC3)cc21 | inactive: 71%
14 | Cc1cc(C)cc(-n2cnc3cc(C(=O)NCCc4ccccc4)ccc32)c1 | inactive: 73%
15 | COc1cc(NC(=O)Cn2c(SCc3ccc(F)cc3)nc3cccnc32)cc(OC)c1 | inactive: 128%
16 | CCN(C(=O)Cn1c(C(=O)OC)cc2oc3ccccc3c21)c1cccc(C)c1 | active: 24%
17 | Cc1ccc(CCNC(=O)CCc2cn(Cc3ccccc3C)c3ccccc23)cc1 | inactive: 97%
18 | CCOC(=O)c1c(Oc2ccc(C(=O)OC)cc2)nnc(-c2ccccc2)c1-c1ccccc1 | inactive: 87%
19 | Cc1ccc(C)c(N(C)C(=O)c2cn(C)c(=O)c3ccccc23)c1 | inactive: 90%
20 | O=C(CNC(=O)c1ccccc1Cl)OCc1cc(=O)n2ccsc2n1 | inactive: 74%
21 | O=C(c1cccc(Cl)c1)n1nc(-c2ccco2)nc1NCc1cccs1 | inactive: 83%
22 | COc1cc(CN(C(=O)c2cc3ccccc3oc2=O)C2CCS(=O)(=O)C2)cc(OC)c1OC (configuration not stated) | inactive: 84%
23 | Cc1cccc(Cn2c(SCc3ccc(C(=O)N4CCCCCC4)cc3)nc3ccncc32)c1 | inactive: 132%

Row | Compound | survival
24 | Brc1csc(CN2CCc3nc(Nc4ccccc4)ncc3C2)c1 | inactive: 70%
25 | Cc1cccc(NC(=O)c2cc(S(=O)(=O)N3CCCCC3)c[nH]2)c1C | inactive: 89%
26 | Cc1ccc(Cn2c(=O)n(CCCCC(=O)NCCc3ccc(Cl)cc3)c(=O)c3ccccc32)cc1 | inactive: 103%
27 | CC1CCc2c(sc3nnn(Cc4ccc(F)cc4)c(=O)c23)C1 (configuration not stated) | active: 1%
28 | COc1ccc(Cc2c(Cl)nc(SC)nc2NN)cc1 | inactive: 99%
29 | O=C(NCc1ccccc1)c1cc(-c2cccc(Cl)c2)on1 | inactive: 88%
30 | CC1=NN(CCC#N)C(c2ccccc2)C1 (configuration not stated) | inactive: 108%
31 | Cc1cc(C)cc(OCC(=O)NCC(c2ccc(Cl)cc2)N2CCCCC2)c1 (configuration not stated) | inactive: 83%
32 | COc1ccc(S(=O)(=O)N2CCN(c3ccc(F)cc3)CC2)cc1-c1noc(C)n1 | inactive: 84%
33 | O=C1CC2CCC(CN1)N2CC(=O)N1c2ccccc2Sc2ccc(C(F)(F)F)cc21 (configuration not stated) | inactive: 110%
34 | COc1ccc(OC)c(N(CC(=O)NCc2ccccc2)S(=O)(=O)c2ccccc2)c1 | inactive: 79%
35 | CCc1ccccc1NC(=O)Cn1nnc(C(=O)OC)c1C(=O)OC | inactive: 83%
36 | COc1ccc(N2CCOCC2)cc1 | inactive: 110%
37 | CCN(CC)S(=O)(=O)c1ccc2c(c1)N(CC(=O)Nc1c(C)cccc1C)C(=O)CO2 | inactive: 87%
38 | COC(=O)c1ccc(NC(=O)CC2C(=O)N(c3ccc(Cl)cc3)C(=O)N2Cc2cccs2)cc1 (configuration not stated) | inactive: 66%
39 | CCc1ccc(NCc2cc3cc4c(cc3n(CC(=O)Nc3ccc(Cl)cc3)c2=O)OCO4)cc1 | inactive: 131%
40 | COc1ccccc1CCNC(=O)c1ccc2c(c1)c(C)c(C)n2C | inactive: 66%
41 | COc1ccc(NC(=O)CSc2ncc(-c3ccc(Cl)cc3)[nH]2)cc1OC | inactive: 99%
42 | Cc1cc(S(=O)(=O)Nc2cccc(C(=O)O)c2)c(C)c(S(=O)(=O)c2ccccc2)c1 | inactive: 74%
43 | Cc1nnc(SCCCN2C(=O)c3ccccc3C2=O)o1 | inactive: 105%
44 | COC(=O)c1cc(NC(=O)CCc2c(C)nc3c4c(C)cc(C)nc4nn3c2C)cc(C(=O)OC)c1 | inactive: 83%
45 | CCOC(=O)c1sc(N2C(=O)c3oc4cc(C)c(C)cc4c(=O)c3C2c2cccc(O)c2)nc1C (configuration not stated) | inactive: 73%
46 | CN(C)C(=O)c1c(N)no[n+]1[O-] | inactive: 101%

Row | Compound | survival
47 | CCOC(=O)c1sc2ccccc2c1S(=O)(=O)Nc1ccc(N(C)C)cc1 | inactive: 131%
48 | S=c1[nH]nc(NNc2ccccc2)n1Nc1ccccc1 | inactive: 108%
49 | CC1CCN(c2nc3c(S(=O)(=O)c4ccccc4)nnn3c3ccsc23)CC1 | inactive: 116%
50 | CCOC(=O)Cn1cnc2sc(C)c(C)c2c1=O | inactive: 100%
51 | CCc1ccccc1NC(=O)c1cc(S(=O)(=O)N(CC)c2ccccc2)ccc1F | inactive: 75%
52 | COc1ccccc1NC(=O)CCCOc1cc(=O)n(C)c2ccccc12 | inactive: 116%
53 | COc1ccc(-c2nc(C)c(CCNC(=O)C(=O)Nc3cccc(F)c3)s2)cc1OC | inactive: 51%
54 | COc1ccc(CCNC(=O)c2nn(-c3ccc(C)cc3)c(=O)c3c2c2ccccc2n3C)cc1OC | inactive: 76%
55 | O=C(CC1N=C2c3ccccc3N=C(SCC(=O)Nc3cccc(C(F)(F)F)c3)N2C1=O)NCc1cccs1 (configuration not stated) | inactive: 54%
56 | CCc1ccccc1NC(=O)Nc1nnc(N2CCCC2)s1 | inactive: 88%
57 | CCc1ccc(CN(Cc2ccco2)C(=O)c2ccccc2Cl)cc1 | inactive: 81%
58 | CCOC(=O)CCn1nc(-c2ccc(C)cc2)c2ccccc2c1=O | inactive: 75%
59 | Cc1ccc(C)c(Cn2c(=O)n(Cc3ccccc3)c(=O)c3c(C)c(C)sc32)c1 | inactive: 90%
60 | CCn1nc(C)c(Oc2ccccc2O)c1C | inactive: 116%
61 | COc1cc(NC(=O)Cn2c(=O)n(Cc3ccccc3OC)c(=O)c3cccnc32)cc(OC)c1 | inactive: 147%
62 | Cc1ccc(C(=O)COC(=O)c2cc(-c3ccccc3)nc3ccccc23)cc1C | inactive: 91%
63 | Cc1ccc(C)c(N2CCN(S(=O)(=O)c3ccc4oc(=O)c5ncn(C)c5c4c3)CC2)c1 | inactive: 81%
64 | O=C(CSC1=NCCS1)N1CCN(c2ccc(Cl)cc2)CC1 | inactive: 116%
65 | COc1ccc(NC(=O)CCN2CCN(c3cccc(Cl)c3)CC2)cc1 | inactive: 92%
66 | Cc1ccc(S(=O)(=O)c2nnn3c2nc(NCc2ccc(F)cc2)c2sccc23)cc1 | inactive: 117%
67 | CCCNC(=O)c1ccc2c(c1)N(Cc1cccc(C)c1)C(=O)c1ccccc1S2 | inactive: 95%
68 | O=C(Cn1c(C(=O)N2CCN(C(=O)c3ccco3)CC2)cc2sccc21)c1ccccc1 | inactive: 118%
69 | CCOc1ccc(OCC)c(NC(=O)C2CCCN(S(=O)(=O)c3ccc4c(c3)oc(=O)n4C)C2)c1 (configuration not stated) | inactive: 96%

Row | Compound | survival
70 | CCOc1ccc(CNC(=O)Cn2c(=O)c3cccn3c3ccc(F)cc32)cc1 | inactive: 102%
71 | CCN1c2ccccc2-n2cccc2C12CCN(C(=O)Nc1ccccc1C(F)(F)F)CC2 | inactive: 75%
72 | CC(=O)Nc1ccc(Nc2ncnc3c2c(-c2ccccc2)cn3-c2ccccc2)cc1 | inactive: 140%
73 | O=C(Nc1ccc(F)c(Cl)c1)N1CCN(C(=O)c2nsc3ccccc23)CC1 | inactive: 70%
74 | Cc1cc(C)cc(-n2c(SCC(=O)N3CCc4ccccc43)nc3c([nH]c4ccccc43)c2=O)c1 | active: 14%
75 | C#CCNc1c2c(nc3nnnn13)CCCC2 | inactive: 104%
76 | Cc1cccc(-c2nc(SCCCOc3ccccc3Cl)n3[nH]c(=O)cc3n2)c1 | inactive: 65%
77 | CCn1c(C(=O)N2CCC(C(=O)N3CCN(c4cccc(C)c4C)CC3)CC2)cc2sccc21 | inactive: 59%
78 | CCOc1ccc2nc(N3CCN(C(=O)CS(=O)(=O)c4ccc(F)cc4)CC3)sc2c1 | inactive: 69%
79 | CC(=O)N=c1cccc(NC(C)=O)n1O | inactive: 93%
80 | Cn1nc(C(=O)N2CCN(c3ccc(Cl)cc3)CC2)c2c1-c1ccccc1SC2 | inactive: 88%
81 | Cc1ccc(NC(=O)Cn2nnnc2-c2ccccc2N)cc1 | inactive: 79%
82 | CCN(CC)C(=O)CSc1nc2cccnc2n1C | inactive: 104%
83 | O=c1c2cc3c(cc2nc2sc(Nc4ccc(F)cc4F)nn12)OCO3 | inactive: 69%
84 | Cc1ccc(C)c(N2CCN(c3ncnc4c3nc3n4CCCCC3)CC2)c1 | inactive: 63%
85 | O=C(C1CCCN(S(=O)(=O)c2cccs2)C1)N1CCN(c2cccc(Cl)c2)CC1 (configuration not stated) | inactive: 88%
86 | NC(=O)CSc1nc2c(oc3ccccc32)c(=O)n1-c1ccccc1F | inactive: 57%
87 | c1ccc(CNc2nc3ccccc3c3nc(-c4ccccc4)nn23)cc1 | inactive: 67%
88 | Cn1c(=O)c2nc(SCC(=O)Nc3cc(Cl)ccc3Cl)n(C)c2n(C)c1=O | inactive: 67%
89 | COc1cccc(CNC(=O)CSc2ccc(-c3sc(-c4ccccc4)nc3C)nn2)c1 | inactive: 42%
90 | COc1ccc(Cl)cc1NC(=O)N1CCC(CN2CCc3ccccc3C2)CC1 | inactive: 129%
91 | CCOc1ccc(C(=O)NCC(c2ccco2)S(=O)(=O)c2ccc(C)cc2)cc1 (configuration not stated) | inactive: 85%
92 | O=C(Cn1cc(S(=O)(=O)Cc2ccc(F)cc2)c2ccccc21)NCCc1ccccc1 | inactive: 85%
